The full ranking holds about 33,000 sequences; the median of “E-score (-0.5 to 0.5)” is about -0.054, and the highest 2% start at about 0.39. This is one part of the list.
Molecular target: Ylr278c (UniProt Q05854)
Test: PBM E-score (8-mer binding enrichment) (E-score (-0.5 to 0.5)); higher = stronger / more preferred TF binding; most listed sequences are background and not binding sites
Settings: protein concentration: 200 nM; construct: GST-DNA-binding domain
How it was run: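 The E-score, a modified Wilcoxon-Mann-Whitney statistic, was computed by the Universal PBM Analysis Suite for every ungapped eight-base word pooled with its reverse complement. Scans behind it were normalised with masliner after bound GST-tagged yeast transcription factors were detected with fluorescent anti-GST. The proteins, at about 100-200 nM, had been applied to universal all-10-mer Agilent arrays made double-stranded by primer extension.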

Going from AGCAAACG to ATGAGCGA, the “PBM E-score” value falls from 0.00825 to -0.117.

First: ATTTAACC
Second: GTTTAGCA
The “PBM E-score” value of the first is higher: 0.135 for the first, -0.0611 for the second.

First: TCTACAGA
Second: AGATGCGA
The “PBM E-score” value of the first is lower: -0.0519 for the first, 0.0808 for the second.

Going from CTCCGGGA to CCAAGAGA, the “PBM E-score” value falls from 0.468 to -0.167.

Going from CATCTGCG to AGTTGAAA, the “PBM E-score” value rises from 0.0829 to 0.114.

Going from CGTTTTGA to CCGACAAG, the “PBM E-score” value rises from -0.142 to 0.281.

Going from CCCTCTCC to ATATGTGA, the “PBM E-score” value falls from -0.0108 to -0.262.

Compared with CCAGTGGA, CTTCACAC is higher in “PBM E-score” value: -0.145 for the first, -0.0372 for the second.

Going from AGGTTCAA to ATAGTAGG, the “PBM E-score” value rises from -0.118 to -0.00095.

Compared with TACCTAAA, GGGCGGAC is higher in “PBM E-score” value: -0.0405 for the first, 0.399 for the second.

Going from CTGTGCGC to GTTGAAAC, the “PBM E-score” value falls from 0.145 to 0.0735.

Compared with TGGCACAA, ATAACTGA is higher in “PBM E-score” value: -0.204 for the first, -0.0171 for the second.

Going from GAGTAATA to ACATTACT, the “PBM E-score” value falls from 0.139 to -0.177.

Going from AGACTCTC to CCATTAAC, the “PBM E-score” value rises from -0.141 to -0.113.

Compared with TCGTGGAA, AAGAAGCC is higher in “PBM E-score” value: 0.0808 for the first, 0.278 for the second.

First: CGAGATTA
Second: AGTGGGAT
The “PBM E-score” value of the first is higher: 0.168 for the first, -0.00431 for the second.

Going from CCTTCCCA to AAGACCCA, the “PBM E-score” value falls from -0.0384 to -0.147.

Compared with CTAATACA, AAATAACA is higher in “PBM E-score” value: -0.0858 for the first, -0.043 for the second.

First: GCACACGC
Second: CCAGAAGC
The “PBM E-score” value of the first is lower: -0.0949 for the first, -0.0506 for the second.

First: TAATCTAA
Second: GATACGGC
The “PBM E-score” value of the first is lower: -0.0712 for the first, 0.0373 for the second.

Going from GCCAAGCA to ATAGCCCC, the “PBM E-score” value rises from -0.195 to -0.129.

Going from CCATCAAA to CAGATCAA, the “PBM E-score” value falls from -0.101 to -0.169.

Compared with GTATCATA, ACGTCAGA is lower in “PBM E-score” value: -0.0131 for the first, -0.338 for the second.

Going from CGGTGAAG to AAGCCTTC, the “PBM E-score” value falls from 0.0946 to -0.22.

Going from CTGGACTC to ACGAGCAC, the “PBM E-score” value falls from -0.0592 to -0.0719.

First: ACCTTCAA
Second: CCATCTCA
The “PBM E-score” value of the first is higher: -0.129 for the first, -0.255 for the second.

Compared with CAAGTCGC, AGAAATTG is higher in “PBM E-score” value: -0.218 for the first, 0.096 for the second.

First: CTACTCTC
Second: CCATCGCA
The “PBM E-score” value of the first is higher: -0.0666 for the first, -0.262 for the second.

First: GGCCTATA
Second: AATTTTAG
The “PBM E-score” value of the first is higher: -0.0565 for the first, -0.218 for the second.

Going from AGTGCGGC to ATACGCTC, the “PBM E-score” value falls from 0.196 to 0.00427.

Compared with CGTTGGTC, CCTTTCGC is higher in “PBM E-score” value: -0.0089 for the first, 0.0666 for the second.

First: CACCGTAG
Second: ACTCCTAT
The “PBM E-score” value of the first is higher: 0.0181 for the first, -0.0311 for the second.

First: CGCCCGCG
Second: CGGGTACA
The “PBM E-score” value of the first is higher: 0.263 for the first, 0.0901 for the second.

Going from AACAACTA to TCCAGCGA, the “PBM E-score” value falls from 0.0158 to -0.135.

Going from CGAGGAGC to GCAACTAC, the “PBM E-score” value rises from -0.0106 to 0.0217.

Going from CACGGGCC to CACGACTA, the “PBM E-score” value falls from 0.181 to -0.321.

Compared with GCTAGCCA, GTTACCGA is higher in “PBM E-score” value: -0.139 for the first, 0.00688 for the second.

Compared with CTCTATGC, TAGAACAA is lower in “PBM E-score” value: -0.109 for the first, -0.174 for the second.

Compared with CGCGTATA, CGGATTAA is higher in “PBM E-score” value: -0.0338 for the first, 0.39 for the second.

Going from GTCCGAAC to AGGGGCAC, the “PBM E-score” value falls from 0.401 to -0.237.

First: CACAAACG
Second: CCGTGGAC
The “PBM E-score” value of the first is lower: 0.141 for the first, 0.19 for the second.

Compared with AGTGGACA, CGGGATAA is higher in “PBM E-score” value: 0.0408 for the first, 0.309 for the second.

Going from AGTTCAGG to CACTAGAA, the “PBM E-score” value rises from -0.0538 to -0.0518.

First: CGAATTTC
Second: CACCTCCG
The “PBM E-score” value of the first is lower: 0.174 for the first, 0.425 for the second.

Compared with ATCTAGCG, CCTTTGGC is lower in “PBM E-score” value: -0.113 for the first, -0.234 for the second.

First: CACGACAC
Second: CCACAAGA
The “PBM E-score” value of the first is lower: -0.0369 for the first, -0.0304 for the second.

Compared with CCGGCGGC, ATAGCATG is lower in “PBM E-score” value: 0.407 for the first, -0.214 for the second.

First: GGATAAAA
Second: AGACACAC
The “PBM E-score” value of the first is higher: 0.188 for the first, -0.257 for the second.

First: CGAACCCC
Second: ATGTTGTC
The “PBM E-score” value of the first is higher: 0.316 for the first, -0.0406 for the second.

First: AGGTGCGC
Second: CCAACGAA
The “PBM E-score” value of the first is higher: -0.0861 for the first, -0.123 for the second.

Going from CTGAACCC to AAGTAACC, the “PBM E-score” value falls from -0.0929 to -0.111.

First: GCGACAAC
Second: GTACTCCA
The “PBM E-score” value of the first is higher: -0.0599 for the first, -0.182 for the second.

First: GAATTCTA
Second: GAAGTTCC
The “PBM E-score” value of the first is lower: 0.00941 for the first, 0.125 for the second.

Going from TAGACCGA to CCTCATTC, the “PBM E-score” value falls from 0.0591 to -0.0761.

Compared with GCCTAATA, ATGCGTCA is lower in “PBM E-score” value: -0.126 for the first, -0.176 for the second.

First: ATCGTATG
Second: CTATAAAA
The “PBM E-score” value of the first is lower: -0.283 for the first, -0.121 for the second.

Going from AATGCGTC to CGGCTACC, the “PBM E-score” value rises from -0.219 to 0.218.

Compared with CTGGCTCC, AGAGCCTC is lower in “PBM E-score” value: 0.101 for the first, -0.252 for the second.

First: GTTCCTTA
Second: ACGGGAAG
The “PBM E-score” value of the first is lower: -0.151 for the first, -0.0803 for the second.

First: CAGAGTAA
Second: CAGAGATA
The “PBM E-score” value of the first is lower: -0.171 for the first, -0.162 for the second.

First: TCATCGCA
Second: AGAGGCAG
The “PBM E-score” value of the first is higher: -0.0812 for the first, -0.299 for the second.

Compared with AATAGTGA, AGGGAGTG is lower in “PBM E-score” value: -0.188 for the first, -0.316 for the second.

Going from AGCACGTG to ACTAGCCC, the “PBM E-score” value rises from -0.266 to 0.116.

Compared with AACTGTAT, CCTCATAG is lower in “PBM E-score” value: -0.0073 for the first, -0.196 for the second.

Compared with CCAGGAAG, GCTAGTAC is lower in “PBM E-score” value: -0.157 for the first, -0.203 for the second.

Going from AGGCAACT to TATCCTCA, the “PBM E-score” value falls from 0.0277 to -0.0486.

Going from AAGGGACC to AACGAAAT, the “PBM E-score” value rises from -0.164 to 0.0804.

Going from ACAACACA to CAACCGAA, the “PBM E-score” value rises from -0.262 to -0.0119.

Compared with GCGGGTAC, ACGGTAAG is higher in “PBM E-score” value: -0.00773 for the first, 0.101 for the second.

Going from AGAATGGC to ACAGCCAT, the “PBM E-score” value falls from 0.175 to -0.177.

Compared with AGTTCGAT, AATGGGGG is lower in “PBM E-score” value: -0.104 for the first, -0.254 for the second.

Going from AAGAAAGC to AACTCCGT, the “PBM E-score” value rises from -0.0825 to 0.486.

First: AAGAAATC
Second: CCCCGTGA
The “PBM E-score” value of the first is lower: -0.0701 for the first, 0.152 for the second.

First: CGCAGGTC
Second: GAGAATAA
The “PBM E-score” value of the first is lower: -0.00274 for the first, 0.0187 for the second.

Going from AAACTAGC to GGATAAAC, the “PBM E-score” value rises from -0.153 to 0.22.

First: AAAGCACA
Second: GGTTACAA
The “PBM E-score” value of the first is higher: -0.103 for the first, -0.117 for the second.

First: AATACATA
Second: AACGGGCG
The “PBM E-score” value of the first is lower: -0.0847 for the first, 0.0094 for the second.

Going from AACCTGCA to TATAAATA, the “PBM E-score” value rises from -0.0893 to 0.0789.

First: GGGTTTAC
Second: ATACCTAA
The “PBM E-score” value of the first is higher: 0.16 for the first, -0.126 for the second.

Going from ATACGCCG to AGCGAGTA, the “PBM E-score” value falls from 0.363 to 0.154.

First: CTGAGACC
Second: GATCTCAA
The “PBM E-score” value of the first is lower: -0.187 for the first, 0.077 for the second.

Going from ACTGGCAC to AGTGCCAA, the “PBM E-score” value falls from -0.0817 to -0.32.

First: GGATGGCC
Second: GCTCATGA
The “PBM E-score” value of the first is higher: -0.0999 for the first, -0.202 for the second.

Compared with GAGGGGTA, AGAGCGAA is higher in “PBM E-score” value: -2e-05 for the first, 0.00444 for the second.

Going from CATTAGAC to CTGGTCTC, the “PBM E-score” value falls from -0.134 to -0.268.

Going from GAACTGAC to GCAACCAC, the “PBM E-score” value falls from 0.00651 to 0.00041.

Reference: the supplement of paper PMC3334620
